Out of some 110,000 compounds screened, about 230 (0.21%) showed an effect of 50% or more. Some of the results follow.
Target: DPAP1 (Plasmodium falciparum, UniProt Q8IIJ9)
Test: primary screen, percent inhibition; read by cleavage of a fluorogenic dipeptide substrate; higher = more effect of the substance
Parameters: species or system P. falciparum D10 trophozoite lysates; single well
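Note: 30 min substrate incubation versus DMSO and 10 µM JCP410 controls.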

Chain of DPAP1 (Q8IIJ9 whole entry, looked up): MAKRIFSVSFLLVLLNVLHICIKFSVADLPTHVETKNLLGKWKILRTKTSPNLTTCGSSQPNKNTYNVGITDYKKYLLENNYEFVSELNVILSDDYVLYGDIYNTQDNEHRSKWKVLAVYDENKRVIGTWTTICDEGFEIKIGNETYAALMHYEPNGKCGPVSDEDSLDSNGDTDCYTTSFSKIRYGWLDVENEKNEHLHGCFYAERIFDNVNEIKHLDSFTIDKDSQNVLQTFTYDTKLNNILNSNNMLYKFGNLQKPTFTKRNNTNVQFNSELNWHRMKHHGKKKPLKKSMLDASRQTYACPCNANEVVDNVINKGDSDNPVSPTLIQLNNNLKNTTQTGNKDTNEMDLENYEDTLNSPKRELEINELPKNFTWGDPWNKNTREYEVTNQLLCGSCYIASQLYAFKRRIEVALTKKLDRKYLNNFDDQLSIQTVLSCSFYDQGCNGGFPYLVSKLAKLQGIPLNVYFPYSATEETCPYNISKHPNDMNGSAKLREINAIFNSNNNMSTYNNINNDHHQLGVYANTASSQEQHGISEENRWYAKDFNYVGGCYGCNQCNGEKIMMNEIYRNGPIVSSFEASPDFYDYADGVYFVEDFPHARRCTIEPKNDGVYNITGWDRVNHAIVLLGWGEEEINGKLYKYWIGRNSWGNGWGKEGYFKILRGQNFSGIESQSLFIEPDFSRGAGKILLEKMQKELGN

Compound | % Inhibition @ 10 uM
O=C(CSc1nnc(-c2ccco2)c(-c2ccco2)n1)Nc1cnc2ccccc2c1 | -3.96%
CC(C)(C)c1ccc(OCCCCCN2CCCCC2)cc1 | 5.01%
CC1(C)Cc2ccccc2C2=Nc3ccccc3C(=O)C21 (centres unmarked) | -5.68%
c1ccc(CC2CCN(c3nc4ccccc4c4nc(-c5cccnc5)nn34)CC2)cc1 | 4.16%
CCc1sc2ncnc(O)c2c1-c1ccccc1 | 2.18%
C(CN1CCOCC1)NC1CC2CCC1C2 (centres unmarked) | -0.0908%
Cc1ccc2sc(-c3ccc(NC(=O)c4ccco4)cc3)nc2c1 | 2.6%
Cc1ccc(CNC(=O)c2cccnc2)cc1 | 5.73%
COc1ccc(NC(=O)CSc2nc(O)c(C#N)c(-c3ccccc3)n2)cc1 | -6.69%
CCOC(=O)c1c(NC(=O)c2ccccc2)sc2c1CCCC2 | -1.76%
Cc1ccsc1C(=O)Nc1sc2c(c1C#N)CCCC2 | 2.38%
COC(=O)C1=C(c2ccccc2)S(=O)(=O)CCN1C(C)=O | 4.42%
CCn1cc(C(=O)O)c(=O)c2cc(F)c(N3CCN(C(N)=S)CC3)cc21 | -0.0404%
CCn1c(C(=O)O)c(CNCCc2ccc(Cl)cc2)c2ccccc21 | -1.44%
CC(C)(C)c1ccc(OCCCCCn2ccnc2)cc1 | 2.26%
CCOC(=O)N1CCN(c2cc(C)nc3nc(Cc4ccc(Cl)cc4)nn23)CC1 | -0.946%
COC(=O)c1c(NC(=O)c2ccc(Cl)cc2)sc2c1CCC(C)C2 (centres unmarked) | 9.1%
CCN(C(=O)Cc1coc2ccc3ccccc3c12)c1ccccc1 | 9.61%
COc1cc2c(cc1OC)C(C)N(C(=O)c1noc3c1COc1ccc(C)cc1-3)CC2 (centres unmarked) | 7.87%
Fc1ccccc1N1CCN(CCCc2ccccc2)CC1 | 1.62%
c1ccc(CN2CCN(Cc3ccco3)CC2)cc1 | 3.25%
CCOC(=O)c1cc(-c2ccccc2)n(CC(=O)N2CCCC2)c1C | 1.2%
Cc1ccc(S(=O)(=O)c2nnn3c2nc(NCc2cccs2)c2ccccc23)cc1 | 11.3%
CCCC[C@H](NC(=O)[C@H](CC(C)C)NC(=O)OCc1ccccc1)C1=NNC(=O)C1 | 1.35%
COc1ccc(Br)cc1C(=O)Nc1ccc2c(c1)C(=O)N(CC(C)C)C2=O | -12.3%

Compound | % Inhibition @ 10 uM
CC1=[N+]([O-])C(C)(c2ccc(Cl)cc2)[N+]([O-])=C1c1ccccc1 (centres unmarked) | 1.63%
N#C/C(=C/c1cccc(Cl)c1)c1nc(-c2ccc(Cl)cc2)cs1 | -2.32%
COc1ccc(OC)c(NC(=O)c2ccccn2)c1 | 3.04%
COc1ccc(C2(C(=O)Nc3ccccc3)CCOCC2)cc1 | -9.12%
CCC(NC(=O)OC)C12CC3CC(CC(C3)C1)C2 (centres unmarked) | 5.52%
COc1ccc(CNc2nc3c(c(=O)n(C)c(=O)n3C)n2Cc2ccc(OC)cc2)cc1 | 3.35%
Clc1ccc(N2CCN(C3C4CC5CC(C4)CC3C5)CC2)cc1 (centres unmarked) | -2.18%
COc1c2occc2c(OC)c2c(=O)cc(C(=O)O)oc12 | -1.29%
COc1cccc(-c2nc(S)c3c(n2)Oc2c(cccc2OC)C3)c1O | -0.246%
CC(Oc1ccc2oc(-c3ccccc3)c(C(=O)O)c2c1)C(=O)O (centres unmarked) | 1.37%
CC1(NC(=S)N(CCO)CCO)CCS(=O)(=O)C1 (centres unmarked) | -6.44%
c1ccc(CNc2cccc3nonc23)cc1 | 0.751%
CCC1CCc2c(sc(NC(=O)c3cccnc3Cl)c2C(N)=O)C1 (centres unmarked) | 2.7%
Cc1cccn2c(=O)c3cc(C(=O)NCCCn4ccnc4)n(C)c3nc12 | 3.92%
NS(=O)(=O)c1ccc(-n2cccc2C=O)cc1 | 0.685%
COc1ccc(C2C(C#N)=C(N)Oc3cc(C)oc(=O)c32)c(C)c1C (centres unmarked) | -4.94%
O=S(=O)(c1ccc2c(c1)OCCO2)N1CCCCCC1 | -11.2%
O=C(NCC1CCCO1)c1nc(-c2ccc(-n3cccc3)cc2)no1 (centres unmarked) | 3.66%
CCOC(=O)c1c(-c2ccccc2)oc2cc(Br)c(O)cc12 | 3.04%
CCOC(=O)N1CCN(C(=O)c2cnc3ccc(S(=O)(=O)N(CC)CC)cc3c2O)CC1 | -4.06%
Cc1nc(N2CCCCCC2)c2cc(-c3ccccc3)sc2n1 | -1.6%
O=C(Nc1ccc(F)cc1F)c1ccc([N+](=O)[O-])cc1 | -1.48%
O=C(C1CCCN(c2cnnc3c(Cl)cccc23)C1)N1CCCC1 (centres unmarked) | -0.631%
CSc1nc2c(c(=O)n1C)C(C)(C)Cc1ccccc1-2 | -1.2%
S=C(NC12CC3CC(CC(C3)C1)C2)NC12CC3CC(CC(C3)C1)C2 | -0.274%
